# Data as given in PubChem BioAssay (NCATS).
# The shares of active, inactive and inconclusive entries below differ from those in the screen. For some of these results: No potency is given beside an inconclusive call; the fits are too rough. Active and inactive are the calls of the source. Unless noted, calls come from the whole dose curve; as a rule, active = well fitted curve in the direction sought with a large enough effect in the repeat runs; inconclusive = weak or mixed curves; inactive = no such curve, though single readings can be large; an effect the other way counts as inactive or inconclusive.
# Assays:
# [1] = target: Cytochrome P450 2D6 (Homo sapiens) (UniProt P10635); test: Cytochrome P450 family 2 subfamily D member 6 (CYP2D6) small molecule antagonists: luciferase biochemical (cell-free) qHTS assay (AID 1645840); note: nearly all actives have a fitted effect of over 55% in size
# Sequence of UniProt P10635 (P10635 whole entry, looked up): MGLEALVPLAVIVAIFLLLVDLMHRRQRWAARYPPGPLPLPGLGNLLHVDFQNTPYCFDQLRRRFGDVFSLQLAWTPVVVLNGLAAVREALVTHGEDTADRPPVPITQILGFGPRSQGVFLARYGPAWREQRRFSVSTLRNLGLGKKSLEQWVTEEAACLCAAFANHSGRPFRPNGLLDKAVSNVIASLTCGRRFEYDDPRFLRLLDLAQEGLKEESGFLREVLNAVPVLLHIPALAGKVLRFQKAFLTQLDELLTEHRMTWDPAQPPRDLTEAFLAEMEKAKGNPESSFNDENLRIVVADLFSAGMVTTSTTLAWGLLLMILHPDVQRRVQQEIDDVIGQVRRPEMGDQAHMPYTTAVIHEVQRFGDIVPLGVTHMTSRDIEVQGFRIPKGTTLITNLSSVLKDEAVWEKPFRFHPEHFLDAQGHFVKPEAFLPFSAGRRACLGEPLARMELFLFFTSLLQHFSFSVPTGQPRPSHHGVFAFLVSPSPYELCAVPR
# Summary of the method: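 P450-Glo luminescent screen: recombinant CYP2D6 enzyme–proluciferin substrate mix preincubated with compound 10 min at room temperature, then NADPH regeneration added for 1 h at room temperature. Detection reagent added for 20 min; luciferin light read as relative luminescence units.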
# [2] = target: Cytochrome P450 3A4 (Homo sapiens) (UniProt P08684); test: Cytochrome P450 family 3 subfamily A member 4 (CYP3A4) small molecule antagonists: luciferase qHTS assay (AID 1645841); note: nearly all actives have a fitted effect of over 45% in size
# Sequence of UniProt P08684 (P08684 whole entry, looked up): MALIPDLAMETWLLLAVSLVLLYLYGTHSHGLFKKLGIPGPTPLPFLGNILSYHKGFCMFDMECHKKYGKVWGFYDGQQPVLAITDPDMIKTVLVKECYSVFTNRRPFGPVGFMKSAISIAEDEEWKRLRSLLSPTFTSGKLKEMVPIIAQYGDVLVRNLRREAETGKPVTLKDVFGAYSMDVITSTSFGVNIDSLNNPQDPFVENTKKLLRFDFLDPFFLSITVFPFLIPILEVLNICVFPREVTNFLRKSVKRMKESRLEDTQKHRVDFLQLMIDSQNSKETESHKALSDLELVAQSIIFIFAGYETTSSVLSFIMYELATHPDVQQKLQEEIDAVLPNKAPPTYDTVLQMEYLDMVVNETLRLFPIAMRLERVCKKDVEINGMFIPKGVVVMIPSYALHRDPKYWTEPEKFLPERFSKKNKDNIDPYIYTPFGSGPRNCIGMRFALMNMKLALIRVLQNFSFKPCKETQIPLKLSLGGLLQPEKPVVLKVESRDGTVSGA
# Summary of the method: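 P450-Glo CYP3A4 enzyme with proluciferin substrate was preincubated with DMSO-dissolved compounds for 10 min at room temperature. NADPH regeneration solution started a 1 h reaction. Detection reagent stopped it, and luminescence was read after 20 min.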
# [3] = target: Cytochrome P450 2C9 (Homo sapiens) (UniProt P11712); test: Cytochrome P450 family 2 subfamily C member 9 (CYP2C9) small molecule antagonists: luciferase biochemical (cell-free) qHTS assay (AID 1645842); note: nearly all actives have a fitted effect of over 55% in size
# Sequence of UniProt P11712 (P11712 whole entry, looked up): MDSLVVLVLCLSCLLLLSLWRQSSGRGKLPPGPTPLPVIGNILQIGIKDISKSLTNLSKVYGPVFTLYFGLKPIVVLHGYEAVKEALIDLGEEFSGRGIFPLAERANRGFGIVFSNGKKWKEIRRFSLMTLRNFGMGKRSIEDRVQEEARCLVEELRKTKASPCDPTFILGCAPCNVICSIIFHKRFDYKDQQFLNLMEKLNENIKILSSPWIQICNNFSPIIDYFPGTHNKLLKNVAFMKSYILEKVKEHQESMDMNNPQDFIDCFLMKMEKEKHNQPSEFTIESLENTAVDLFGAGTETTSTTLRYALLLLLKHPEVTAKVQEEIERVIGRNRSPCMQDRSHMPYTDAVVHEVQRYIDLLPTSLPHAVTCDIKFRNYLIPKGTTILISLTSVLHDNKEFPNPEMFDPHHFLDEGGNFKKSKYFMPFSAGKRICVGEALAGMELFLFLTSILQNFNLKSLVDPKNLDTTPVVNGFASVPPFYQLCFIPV
# Summary of the method: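 Luminescence, after 20 min with luciferin detection reagent, reflected CYP2C9 turnover during a 1 h NADPH-driven reaction at 37C. Enzyme-substrate mix contained 0.4% bovine serum albumin and was preincubated with compound 10 min at room temperature.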
# [4] = target: Luciferin 4-monooxygenase (Photinus pyralis) (UniProt P08659); test: Primary firefly luciferase (FLuc) qHTS assay for identification of artifact compounds. (AID 1845220; active = well fitted curve in the direction sought with a large enough effect; inconclusive = small, poorly fitted or top-dose-only effect, or another doubt; inactive = no such curve, though single readings can be large; an effect the other way counts as inactive or inconclusive; note: nearly all actives have a fitted effect of over 60% in size)
# Summary of the method: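 qHTS, 15 min compound preincubation with substrate (10 uM luciferin, 10 uM ATP) at RT, then 10 nM FLuc; 5 min; luminescence; % inhibition vs no-enzyme/DMSO controls, 4-parameter Hill fit.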
# [5] = target: Glutathione peroxidase 1 (Homo sapiens) (UniProt P07203); test: Primary qHTS Assay for Inhibitors of Recombinant Selenoprotein Glutathione Peroxidase 1 (GPX1) (AID 1845191; active = well fitted curve in the direction sought with a large enough effect; inconclusive = small, poorly fitted or top-dose-only effect, or another doubt; inactive = no such curve, though single readings can be large; an effect the other way counts as inactive or inconclusive; note: nearly all actives have a fitted effect of over 65% in size)
# Sequence of UniProt P07203 (P07203 whole entry, looked up): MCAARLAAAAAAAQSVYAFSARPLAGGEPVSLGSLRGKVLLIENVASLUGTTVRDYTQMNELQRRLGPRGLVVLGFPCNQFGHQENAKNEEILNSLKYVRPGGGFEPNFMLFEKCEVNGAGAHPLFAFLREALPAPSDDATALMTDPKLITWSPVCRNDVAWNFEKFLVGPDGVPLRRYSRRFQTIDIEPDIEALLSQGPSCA
# Summary of the method: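 Recombinant GPX1 (10 nM final) was preincubated with compound for 30 min at room temperature, then reacted with 1 mM GSH, 0.5 mM CHP, 0.5 mM NADPH and 100 nM glutathione reductase; NADPH fluorescence (340/450 nm) was read at 0 and 15 min.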
# [6] = target: Phospholipid hydroperoxide glutathione peroxidase GPX4 (Homo sapiens) (UniProt P36969); test: Primary qHTS Assay for Inhibitors of Recombinant Selenoprotein Glutathione Peroxidase 4 (GPX4) (AID 1845192; active = well fitted curve in the direction sought with a large enough effect; inconclusive = small, poorly fitted or top-dose-only effect, or another doubt; inactive = no such curve, though single readings can be large; an effect the other way counts as inactive or inconclusive; note: nearly all actives have a fitted effect of over 65% in size)
# Sequence of UniProt P36969 (P36969 whole entry, looked up): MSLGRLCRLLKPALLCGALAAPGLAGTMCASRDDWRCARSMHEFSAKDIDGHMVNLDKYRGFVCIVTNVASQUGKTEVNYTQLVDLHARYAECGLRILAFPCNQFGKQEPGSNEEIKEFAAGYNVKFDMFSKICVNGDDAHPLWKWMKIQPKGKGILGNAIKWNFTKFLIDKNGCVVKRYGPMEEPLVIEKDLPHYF
# Summary of the method: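 GR-coupled readout: 100 nM GR, 1 mM GSH, 0.5 mM NADPH; NADPH fluorescence (ex 340/em 450 nm) read at t=0 and after 15 min RT. GPX4 200 nM, preincubated 30 min with compound; substrate 0.5 mM CHP.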
# [7] = Primary fluorescence-based thiol-reactive (MSTI) qHTS assay for identification of artifact compounds. (AID 1845221; active = well fitted curve in the direction sought with a large enough effect; inconclusive = small, poorly fitted or top-dose-only effect, or another doubt; inactive = no such curve, though single readings can be large; an effect the other way counts as inactive or inconclusive;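 note: thiol-reactive compounds lower the probe fluorescence signal; nearly all actives have a fitted effect of over 65% in size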)
# Summary of the method: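 Compounds were incubated 1 h at room temperature in the dark with the MSTI probe (4 uM) in PBS pH 7.4, 2% DMSO. Signals were normalized between Acetyl-MSTI and MSTI.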
# [8] = Primary qHTS for inhibitors of nuclear receptor binding SET domain protein 2 (NSD2) in an isogenic RCH-ACV NSD2 p.E1099K mutant (9B) (AID 1645876; active = well fitted curve in the direction sought with a large enough effect; inconclusive = small, poorly fitted or top-dose-only effect, or another doubt; inactive = no such curve, though single readings can be large; an effect the other way counts as inactive or inconclusive; note: nearly all actives have a fitted effect of over 70% in size)
# Potency is the fitted concentration of half-maximal effect; tags give direction and shape of the fitted curve.
smiles,measurement,setting,value
O=C(CSc1nc2ccccc2n1Cc1cccc(F)c1)N1CCN(c2ccc(F)cc2)CC1,Potency,[1],"inconclusive [inhibitor, partial curve]"
COc1ccc(OCC(=O)Nc2cc(-c3nc4ccccc4s3)ccc2C)cc1,Potency,[1],"inconclusive [inhibitor, partial curve]"
COc1ccc(-c2cn3cccnc3n2)cc1NC(=O)COc1ccccc1,Potency,[1],"inconclusive [inhibitor, single point]"
COc1cncc(C#Cc2ccccn2)c1,Potency,[1],"inconclusive [inhibitor, single point]"
same,Potency,[2],"inconclusive [falling, partial curve]"
same,Potency,[3],"inconclusive [inhibitor, single point]"
same,Potency,[4],"inconclusive [inhibitor, single point]"
Cc1cc(C)c(S(=O)(=O)Nc2cccc3cccnc23)c(C)c1,Potency,[1],"inconclusive [inhibitor, partial curve, poor fit]"
same,Potency,[3],"inconclusive [inhibitor, single point]"
CC1(C#N)CCN(c2c(C(=O)N3CCC(C(=O)C4CC4)CC3)cnc3cc(F)c(F)cc23)CC1,Potency,[1],"inconclusive [inhibitor, single point]"
O=C(Nc1cccc(Cl)c1)Nc1ccccc1OCc1cc(=O)n2ccccc2n1,Potency,[1],inactive
same,Potency,[3],"inconclusive [inhibitor, single point]"
COc1ccc(NC(=O)Cn2ccn(-c3ccc(C)c(C)c3)c(=O)c2=O)cc1Cl,Potency,[1],inactive
same,Potency,[2],"inconclusive [falling, partial curve]"
Oc1ccc(C2(c3ccccc3F)CCC(F)(F)CC2)cc1,Potency,[1],"inconclusive [inhibitor, single point]"
same,Potency,[2],active: 12 µM
COCCn1c(SCC(=O)Nc2ccc(F)c(Cl)c2)nc2c(oc3ccccc32)c1=O,Potency,[1],active: 2.39 µM
Cc1nc2nc(NC(=O)c3cccc(Cl)c3)[nH]n2c(=O)c1Cc1ccccc1,Potency,[1],"inconclusive [inhibitor, single point]"
same,Potency,[3],"inconclusive [inhibitor, single point]"
C#Cc1cnc2[nH]c(=O)n(C(CC)CC)c2n1,Potency,[1],"inconclusive [inhibitor, single point]"
same,Potency,[2],inactive
same,Potency,[5],"inconclusive [inhibitor, single point]"
same,Potency,[6],active: 18 µM
same,Potency,[7],"inconclusive [inhibitor, partial curve, poor fit]"
Cc1nnc(SCC(=O)NCc2ccccc2Cl)c2nn(-c3ccccc3)c(C)c12,Potency,[1],"inconclusive [inhibitor, single point]"
Cn1c(=O)c2c(nc(OC3CCN(C(=O)C4CC4)CC3)n2CCC(C)(C)C)n(C)c1=O,Potency,[1],"inconclusive [inhibitor, single point]"
Cc1nc2c(-c3ccccc3)c(C)[nH]n2c(=O)c1Cc1ccc(Br)cc1,Potency,[1],"inconclusive [inhibitor, single point]"
same,Potency,[2],inactive
same,Potency,[3],"inconclusive [inhibitor, partial curve]"
CCn1cc(/C=C(\NC(=O)c2ccc(C)cc2)C(=O)NCCCn2ccnc2)c2ccccc21,Potency,[1],active: 0.169 µM
same,Potency,[3],active: 1.34 µM
Cc1ccc(S(=O)(=O)Nc2nc3n(n2)C(c2ccc(Cl)cc2)C=C(c2ccccc2)N3)cc1 (centres undefined),Potency,[1],"inconclusive [inhibitor, single point]"
same,Potency,[3],"inconclusive [inhibitor, single point]"
Cc1cncn1CCc1nc2c3ccccc3nc(SCC(=O)Nc3cccc(Cl)c3)n2n1,Potency,[1],active: 0.674 µM
CC1=C(C(=O)Nc2cccc(-c3ccn[nH]3)c2)C(c2ccccc2Cl)N=C(Nc2nc3ccccc3o2)N1 (centres undefined),Potency,[1],"inconclusive [inhibitor, partial curve, poor fit]"
C=CC(C)(O)CCC=C(C)CCC=C(C)C (centres undefined),Potency,[1],"inconclusive [inhibitor, partial curve, poor fit]"
COC(=O)c1c(SCC(=O)Nc2ccccc2C(F)(F)F)[nH]c2ccc(Cl)cc2c1=O,Potency,[1],"inconclusive [inhibitor, full curve]"
CCOc1ccc2nc(N3CCC(C(=O)Nc4ccccc4CC)CC3)sc2c1,Potency,[1],"inconclusive [inhibitor, full curve]"
CCOCc1cc(CN2CCN(c3cccc(Cl)c3)CC2)c(O)c2ncccc12,Potency,[1],"inconclusive [inhibitor, single point]"
same,Potency,[3],"inconclusive [inhibitor, single point]"
O=C(CCCCCn1c(=O)c2sccc2n(CC(=O)Nc2cccc(Cl)c2)c1=O)NCc1ccc2c(c1)OCO2,Potency,[1],active: 0.0268 µM
CCOc1cc(C(=O)Nc2ccc(-c3nc4ncccc4o3)cc2C)cc(OCC)c1OCC,Potency,[1],"inconclusive [inhibitor, single point]"
CCc1ccc(C2=CC(c3c(F)cccc3Cl)n3c(nc4ccccc43)N2)cc1 (centres undefined),Potency,[1],"inconclusive [inhibitor, partial curve, poor fit]"
CCOCCCNC(=O)CCC(=O)NNc1nc2ccccc2c2nc(-c3ccccc3)nn12,Potency,[1],"inconclusive [inhibitor, single point]"
CC1(C#N)CCN(c2c(C(=O)N3CCN(C(=O)C4CC4)CC3)cnc3ccc(F)cc23)CC1,Potency,[1],"inconclusive [inhibitor, partial curve, poor fit]"
same,Potency,[2],"inconclusive [falling, single point]"
same,Potency,[3],"inconclusive [inhibitor, partial curve, poor fit]"
Cc1ccnc(NC(c2ccccc2F)c2ccc3cccnc3c2O)c1 (centres undefined),Potency,[1],"inconclusive [inhibitor, single point]"
COc1cc(NC(=O)CSc2nc3ccccc3nc2Cc2ccccc2OC)cc(OC)c1,Potency,[1],"inconclusive [inhibitor, full curve]"
Cc1ccc2ccc(C(Nc3ccccn3)c3ccccc3)c(O)c2n1 (centres undefined),Potency,[1],"inconclusive [inhibitor, single point]"
same,Potency,[2],"inconclusive [falling, single point]"
c1ccc(Cn2c(-c3ccc(OC[C@H](C4CCNCC4)n4c(-c5ccccc5)nc5ccccc54)cc3)nc3ccccc32)cc1,Potency,[1],active: 12 µM
same,Potency,[3],"inconclusive [inhibitor, single point]"
CC1(C#N)CCN(c2c(C(=O)N3CCN(S(C)(=O)=O)CC3)cnc3ccc(F)cc23)CC1,Potency,[1],inactive
COc1ccc2cc(Br)ccc2c1,Potency,[1],inactive
same,Potency,[2],"inconclusive [falling, single point]"
same,Potency,[3],"inconclusive [inhibitor, single point]"
COc1ccccc1NC(=O)Cc1c(C(=O)O)[nH]c2ccc(Cl)cc12,Potency,[1],"inconclusive [inhibitor, single point]"
CN(C)[S+](=O)([O-])c1ccc([S+](=O)([O-])N(Cc2ccccc2)Cc2ccccn2)cc1,Potency,[1],"inconclusive [inhibitor, partial curve, poor fit]"
COc1ccc(Cn2c(CCC(=O)Nc3cc(C)cc(C)c3)nc3cccnc32)cc1,Potency,[1],"inconclusive [inhibitor, full curve, poor fit]"
Cc1ccccc1-n1c(SCc2ccc(Cl)cc2)nc2[nH]ncc2c1=O,Potency,[1],active: 21.3 µM
Cc1nc2c3ccccc3nc(NNC(=O)CCC(=O)N3CCN(c4cc(Cl)ccc4C)CC3)n2n1,Potency,[1],"inconclusive [inhibitor, single point]"
same,Potency,[3],"inconclusive [inhibitor, partial curve]"
COc1cccc(CNC(=O)C2CCCN(c3nn4cc(-c5ccc(C)cc5)nc4s3)C2)c1 (centres undefined),Potency,[1],"inconclusive [inhibitor, partial curve]"
same,Potency,[3],active: 2.39 µM
CCOCc1cc(CN2CCN(c3ccccc3OC)CC2)c(O)c2ncccc12,Potency,[1],"inconclusive [inhibitor, single point]"
same,Potency,[3],"inconclusive [inhibitor, single point]"
CCCCOCc1cc(CN2CCN(c3cccc(Cl)c3)CC2)c(O)c2ncccc12,Potency,[1],"inconclusive [inhibitor, partial curve, poor fit]"
same,Potency,[3],"inconclusive [inhibitor, single point]"
O=C(/C=C/c1cccnc1)NCCCCC1CCN(C(=O)c2ccccc2)CC1,Potency,[1],active: 16.9 µM
same,Potency,[8],active: 0.0019 µM
Cc1ccc(Cc2c(C)nc3c(-c4ccccc4)c(C)[nH]n3c2=O)cc1,Potency,[1],"inconclusive [inhibitor, single point]"
same,Potency,[3],"inconclusive [inhibitor, partial curve]"
CC1=C(C(=O)Nc2cc(C(=O)O)ccn2)C(c2ccccc2Cl)N=C(Nc2nc3cccc(Cl)c3o2)N1 (centres undefined),Potency,[1],"inconclusive [inhibitor, single point]"
same,Potency,[3],"inconclusive [inhibitor, single point]"
Cc1ccccc1Cc1c(C)nc2c(-c3ccccc3)c(C)[nH]n2c1=O,Potency,[1],"inconclusive [inhibitor, single point]"
same,Potency,[3],"inconclusive [inhibitor, single point]"
CCc1ccc(CN(Cc2ccco2)C(=O)COc2ccccc2Cl)cc1,Potency,[1],active: 7.56 µM
same,Potency,[3],"inconclusive [inhibitor, single point]"
